# In PubChem BioAssay (Tox21):
# Where “and” joins values, the source holds several entries; their conditions need not be identical. Equal entries are not always repeated. Inconclusive means that the source gave no clear call. Such entries were picked first, then a sample of the others. For part of these data: Where the call is inconclusive, the potency comes from a doubtful curve fit. The source holds several records for some structures; these can differ, active in one and inactive in another. Calls of active or inactive are those of the source. Unless noted, the call rests on the fitted dose curve; in most records, active means well fitted curve in the direction sought with a large enough effect in the repeat runs; inconclusive means weak or mixed curves; inactive means no such curve, though single readings can be large; an effect the other way counts as inactive or inconclusive.
# How the values were obtained:
# [1] = biological target: Estrogen receptor beta (Homo sapiens) (UniProt Q92731); test: qHTS assay to identify small molecule antagonists of the estrogen receptor beta (ER-beta) signaling pathway (AID 1259378; active means well fitted inhibition curve with a large enough effect in the signal ratio in the repeat runs, not every such curve was filed as active; inconclusive means weak or mixed curves, or effect the other way; inactive means no such curve, though single readings can be large or run the other way; the % refers to the signal ratio; on activity, negative = inhibition: on the % scale 0 is the no-effect control and ±100 the full control effect); conditions: ER-beta-UAS-bla HEK293T, beta-lactamase FRET ratio, 16 h; activity, negative = inhibition: at 92.4 µM (top of the series) unless noted
# Chain of UniProt Q92731 (Q92731 whole entry, looked up): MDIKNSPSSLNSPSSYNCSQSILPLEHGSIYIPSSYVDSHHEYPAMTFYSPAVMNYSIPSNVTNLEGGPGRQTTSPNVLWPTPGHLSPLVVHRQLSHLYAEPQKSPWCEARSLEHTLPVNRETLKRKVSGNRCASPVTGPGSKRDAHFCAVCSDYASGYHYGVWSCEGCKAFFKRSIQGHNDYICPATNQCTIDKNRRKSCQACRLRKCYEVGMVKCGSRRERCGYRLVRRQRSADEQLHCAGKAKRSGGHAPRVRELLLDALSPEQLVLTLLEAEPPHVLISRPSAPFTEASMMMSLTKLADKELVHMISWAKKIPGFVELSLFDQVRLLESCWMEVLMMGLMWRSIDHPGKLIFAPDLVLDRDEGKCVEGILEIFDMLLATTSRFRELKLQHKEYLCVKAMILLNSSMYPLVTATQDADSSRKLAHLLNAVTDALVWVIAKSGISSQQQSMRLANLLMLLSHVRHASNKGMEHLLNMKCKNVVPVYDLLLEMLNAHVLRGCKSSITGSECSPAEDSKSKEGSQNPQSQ
# In short: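 ER-beta-UAS-bla HEK293T cells in 2% charcoal-stripped FBS medium treated with compound plus 1nM final 17-beta-estradiol for 16 hr at 37C. Beta-lactamase reporter read by FRET substrate fluorescence after 2 hours at room temperature.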
# [2] = qHTS assay to identify small molecule agonists of the estrogen receptor beta (ER-beta) signaling pathway - cell viability counter screen (AID 1259380); further: nearly all actives have a fitted effect of over 30% in size
# In short: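 Luminescence read-out (CellTiter-Glo, 30 min, room temp) taken in the same wells as the beta-lactamase reporter assay; ER-beta-UAS-bla HEK293T cells exposed to DMSO-dissolved compounds for 16 hr at 37C in 2% charcoal-stripped FBS medium.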
# [3] = qHTS assay to identify small molecule antagonists of the estrogen receptor beta (ER-beta) signaling pathway - cell viability counter screen (AID 1259382); further: nearly all actives have a fitted effect of over 55% in size
# In short: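 Luminescent ATP read-out (CellTiter-Glo, 30 min, RT) taken in the same wells as the bla reporter assay. HEK293T ER-beta-UAS-bla cells in 2% charcoal-stripped FBS were exposed to compounds with 1nM E2 for 16 hr at 37C.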
# [4] = qHTS assay to identify small molecule agonists of the estrogen receptor alpha (ER-alpha) signaling pathway in the presence of an antagonist - cell viability counter screen (AID 1259386);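 further: cells exposed to compounds for 22 h at 37 °C before the viability read; nearly all actives have a fitted effect of over 30% in size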
# In short: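 Read-out: CellTiter-Fluor fluorescence after 1hr reagent incubation, measured in the same wells as the luciferase readout. VM7Luc4E2 cells were exposed to 15 compound concentrations with 10.0nM ICI-182,780 for 22hr at 37C.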
# [5] = biological target: Thyrotropin receptor (Homo sapiens) (UniProt P16473); test: qHTS assay to identify small molecule antagonists of the thyroid stimulating hormone receptor (TSHR) signaling pathway (AID 1259385; calls by dose curve; further: nearly all actives have a fitted effect of over 20% in size; on activity change, negative = inhibition: on the % scale 0 is the no-effect control and ±100 the full control effect); conditions: TSHR-HEK293 cAMP HTRF, TSH-stimulated antagonist mode; activity change, negative = inhibition: at 92.4 µM (top of the series) unless noted
# Chain of UniProt P16473 (P16473 whole entry, looked up): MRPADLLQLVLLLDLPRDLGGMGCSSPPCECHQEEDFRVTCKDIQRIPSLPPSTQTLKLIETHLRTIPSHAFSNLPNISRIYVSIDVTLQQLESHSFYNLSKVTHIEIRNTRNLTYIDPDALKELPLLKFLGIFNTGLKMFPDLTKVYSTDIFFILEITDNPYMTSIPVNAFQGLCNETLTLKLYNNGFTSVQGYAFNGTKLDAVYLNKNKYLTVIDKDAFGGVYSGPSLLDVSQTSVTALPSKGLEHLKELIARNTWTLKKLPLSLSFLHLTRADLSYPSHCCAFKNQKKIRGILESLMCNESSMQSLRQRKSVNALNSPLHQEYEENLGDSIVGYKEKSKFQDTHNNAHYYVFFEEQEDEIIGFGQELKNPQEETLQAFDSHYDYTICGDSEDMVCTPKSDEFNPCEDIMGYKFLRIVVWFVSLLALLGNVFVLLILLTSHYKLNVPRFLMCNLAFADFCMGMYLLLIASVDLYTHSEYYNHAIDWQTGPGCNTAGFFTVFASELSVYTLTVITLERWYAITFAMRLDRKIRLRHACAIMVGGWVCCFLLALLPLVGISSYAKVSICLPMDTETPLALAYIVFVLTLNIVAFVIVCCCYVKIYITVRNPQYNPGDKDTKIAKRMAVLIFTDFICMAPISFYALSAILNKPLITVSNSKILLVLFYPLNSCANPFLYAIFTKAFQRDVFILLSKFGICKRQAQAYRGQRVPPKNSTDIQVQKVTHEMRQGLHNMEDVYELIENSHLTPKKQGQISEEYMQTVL
# In short: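 TSHR-HEK293 cells (800/well) plated 18 h, then compounds with Ro20-1724 and TSH at 1.5 ng/mL final, 30 min at room temperature. cAMP quantified by HTRF (cAMP-d2/anti-cAMP-cryptate, 1 h); 15 concentrations in triplicate.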
# [6] = qHTS assay to identify small molecule agonists or antagonists of the thyroid stimulating hormone receptor (TSHR) signaling pathway - wild type cell line counter screen (AID 1259384; calls by dose curve; on cAMP activity change: on the % scale 0 is the no-effect control and ±100 the full control effect); conditions: HEK293 wild type, cAMP HTRF counter-screen; cAMP activity change: at 92.4 µM (top of the series), stronger effect = higher value unless noted
# In short: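 Wild-type Hek293 cells, 800/well, 18 h at 37C, then compound with Ro20-1724 for 30 min RT. cAMP by HTRF (cAMP-d2/anti-cAMP cryptate), 1 h RT, fluorescence read. 15 concentrations, triplicates.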
# [7] = biological target: Progesterone receptor (Homo sapiens) (UniProt P06401); test: qHTS assay to identify small molecule agonists of the progesterone receptor (PR) signaling pathway (AID 1346784; calls by dose curve; further: nearly all actives have a fitted effect of over 30% in size; on activation: on the % scale 0 is the no-effect control and ±100 the full control effect); conditions: PR-UAS-bla HEK293T, beta-lactamase FRET ratio, 16 h; activation: at 92.4 µM (top of the series) unless noted
# Chain of UniProt P06401 (P06401 whole entry, looked up): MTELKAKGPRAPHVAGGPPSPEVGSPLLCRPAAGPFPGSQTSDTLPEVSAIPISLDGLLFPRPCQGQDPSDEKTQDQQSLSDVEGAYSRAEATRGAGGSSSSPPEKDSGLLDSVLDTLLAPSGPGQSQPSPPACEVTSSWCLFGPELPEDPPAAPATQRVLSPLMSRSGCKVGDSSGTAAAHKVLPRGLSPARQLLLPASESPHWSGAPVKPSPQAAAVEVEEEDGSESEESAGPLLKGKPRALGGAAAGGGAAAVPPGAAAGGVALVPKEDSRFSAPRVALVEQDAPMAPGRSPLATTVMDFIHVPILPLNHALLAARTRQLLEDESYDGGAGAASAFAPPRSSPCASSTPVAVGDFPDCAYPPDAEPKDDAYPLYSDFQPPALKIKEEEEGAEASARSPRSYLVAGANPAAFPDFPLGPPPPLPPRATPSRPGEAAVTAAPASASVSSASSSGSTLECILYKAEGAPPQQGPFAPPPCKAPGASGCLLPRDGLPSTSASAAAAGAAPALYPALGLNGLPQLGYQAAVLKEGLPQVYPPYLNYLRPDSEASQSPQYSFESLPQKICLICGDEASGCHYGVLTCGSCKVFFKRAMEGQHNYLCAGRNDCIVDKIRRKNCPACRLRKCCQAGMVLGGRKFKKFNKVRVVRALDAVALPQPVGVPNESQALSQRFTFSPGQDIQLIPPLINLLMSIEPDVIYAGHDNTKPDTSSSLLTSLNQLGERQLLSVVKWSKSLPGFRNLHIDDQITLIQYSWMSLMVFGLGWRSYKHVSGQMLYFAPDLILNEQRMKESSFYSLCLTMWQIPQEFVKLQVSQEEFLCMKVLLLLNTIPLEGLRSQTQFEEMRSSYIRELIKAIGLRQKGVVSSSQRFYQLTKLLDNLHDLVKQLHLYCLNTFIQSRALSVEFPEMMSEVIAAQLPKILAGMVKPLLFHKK
# In short: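 Reporter assay, GripTite PR-UAS-bla HEK 293T cells: 16 hr exposure to DMSO-dissolved compounds at 37C, 5% CO2, in steroid-depleted (2% charcoal-stripped FBS) medium; beta-lactamase measured by FRET fluorescence.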
# [8] = biological target: Estrogen receptor (Homo sapiens) (UniProt P03372); test: qHTS assay to identify small molecule agonists of the estrogen receptor alpha (ER-alpha) signaling pathway in the presence of an antagonist (AID 1259383; calls by dose curve; further: nearly all actives have a fitted effect of over 15% in size)
# Chain of UniProt P03372 (P03372 whole entry, looked up): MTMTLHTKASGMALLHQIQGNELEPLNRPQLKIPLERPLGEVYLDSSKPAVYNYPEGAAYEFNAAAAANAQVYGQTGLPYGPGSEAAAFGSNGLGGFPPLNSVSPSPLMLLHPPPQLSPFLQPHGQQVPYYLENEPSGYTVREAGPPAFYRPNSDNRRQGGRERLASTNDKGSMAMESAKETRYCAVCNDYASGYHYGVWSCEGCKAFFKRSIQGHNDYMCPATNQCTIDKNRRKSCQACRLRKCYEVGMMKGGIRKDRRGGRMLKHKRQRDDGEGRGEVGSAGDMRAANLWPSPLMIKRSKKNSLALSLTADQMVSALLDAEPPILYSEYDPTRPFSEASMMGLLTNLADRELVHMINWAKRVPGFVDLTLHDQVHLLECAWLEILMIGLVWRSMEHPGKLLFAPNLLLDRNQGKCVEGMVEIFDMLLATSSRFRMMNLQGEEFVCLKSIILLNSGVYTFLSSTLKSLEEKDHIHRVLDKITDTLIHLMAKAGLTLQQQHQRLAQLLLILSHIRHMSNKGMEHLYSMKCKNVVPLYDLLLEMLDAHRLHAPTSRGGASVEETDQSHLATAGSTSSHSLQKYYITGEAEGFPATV
# In short: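 Luciferase luminescence (ONE-Glo, 30min at room temperature) measured in VM7Luc4E2 cells after 22hr compound exposure at 15 concentrations, with 10.0nM ICI-182,780 final present; cells express endogenous ER-alpha and carry four EREs upstream of luciferase.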
# Potency means the concentration at half of the fitted maximal effect; tags describe the fitted curve by direction and shape or compound fluorescence and quenching.
structure (smiles),measurement,setting,value
COc1ccc(/C=C/S(=O)(=O)NC(=O)c2ccc(C)cc2Cl)cc1,Potency,[1],"inconclusive: 19.3 µM [activator, partial curve, poor fit]"
same,Potency,[2],"inconclusive: 54.5 µM [cytotoxic, partial curve]"
same,Potency,[3],"inconclusive: 68.6 µM [cytotoxic, partial curve, poor fit]"
same,Potency,[4],"inconclusive: 2.73 µM [cytotoxic, single point]"
CCCCC(CC)COC(=O)CCCCCCCC(=O)OCC(CC)CCCC (stereo not drawn),Potency,[1],active: 12.2 µM
same,Potency,[2],"active: 15.4 µM and inconclusive: 27.3 µM [cytotoxic, single point]"
same,Potency,[4],"inconclusive: 17.2 µM [cytotoxic, full curve]"
O=C(O)CCC(=O)c1ccc(-c2ccccc2)cc1,Potency,[1],"inconclusive: 26.6 µM [rising, single point]"
same,Potency,[2],inactive
same,Potency,[5],inactive
Nc1ccc(NC(=O)c2ccc(N)cc2)cc1,"activity, negative = inhibition",[1],inconclusive: -2.8%
same,Potency,[2],active: 54.5 µM
same,Potency,[3],"inconclusive: 54.5 µM [cytotoxic, partial curve, poor fit]"
same,cAMP activity change,[6],inconclusive: -15%
same,"activity change, negative = inhibition",[5],inconclusive: -2.22%
same,Potency,[7],"inconclusive: 38.6 µM [rising, partial curve, poor fit]"
CN1CCC(Nc2ncc3ncnc(Nc4ccc(F)c(Cl)c4)c3n2)CC1,Potency,[1],"inconclusive: 33.5 µM [fluorescent, single point]"
same,Potency,[2],active: 11.9 µM
same,Potency,[3],"inconclusive: 23.7 µM [cytotoxic, partial curve]"
same,Potency,[5],active: 29.8 µM
same,Potency,[4],"inconclusive: 5.31 µM [cytotoxic, partial curve, poor fit]"
same,Potency,[7],"inconclusive: 26.6 µM [fluorescent, partial curve]"
ON=C1CCCC1,Potency,[1],inactive
same,Potency,[2],active: 35.6 µM
same,Potency,[4],"inconclusive: 71 µM [cytotoxic, partial curve, poor fit]"
COc1ccc(Cl)cc1C(=O)NCCc1ccc(S(=O)(=O)NC(=O)NC2CCCCC2)cc1,"activity, negative = inhibition",[1],inconclusive: -28%
same,Potency,[2],"active: 48.6 µM and inconclusive: 21.1 µM [cytotoxic, partial curve]"
same,Potency,[3],"inconclusive: 27.3 µM [cytotoxic, partial curve]"
same,Potency,[5],inactive
C#C[C@]1(OC(C)=O)CC[C@H]2[C@@H]3CCC4=C[C@@H](OC(C)=O)CC[C@@H]4[C@H]3CC[C@@]21C,Potency,[1],"inconclusive: 3.35 µM [activator, full curve]"
same,Potency,[2],"inconclusive: 33.5 µM [cytotoxic, single point]"
same,Potency,[5],active: 11.9 µM
same,Potency,[4],"inconclusive: 33.5 µM [cytotoxic, partial curve, poor fit]"
same,Potency,[7],active: 0.0237 µM
CCC1CCC(CCC(=O)O)C1 (stereo not drawn),Potency,[1],inconclusive: 55.7 µM [partial curve]
same,Potency,[2],"inconclusive: 70.1 µM [cytotoxic, single point]"
same,Potency,[3],"inconclusive: 70.1 µM [cytotoxic, partial curve, poor fit]"
same,Potency,[5],inactive
Oc1cccc2c(O)cccc12,Potency,[1],"inconclusive: 21.7 µM [rising, partial curve]"
same,Potency,[2],active: 61.1 µM
same,Potency,[3],active: 61.1 µM
same,Potency,[6],"inconclusive: 61.1 µM [falling, partial curve, poor fit]"
same,Potency,[5],"inconclusive: 77 µM [falling, single point]"
CC(C)(C)c1ccc(OC2CCCCC2O)cc1 (stereo not drawn),"activity, negative = inhibition",[1],inconclusive: -9.73%
same,Potency,[2],"inconclusive: 68.6 µM [cytotoxic, single point]"
same,Potency,[3],inconclusive: 68.6 µM [cytotoxic]
same,Potency,[4],"inconclusive: 61.1 µM [cytotoxic, single point]"
CC1=Nc2ccc3ccccc3c2C1(C)C,Potency,[1],inconclusive: 48.6 µM [partial curve]
same,Potency,[2],"inconclusive: 10.9 µM [cytotoxic, full curve]"
same,Potency,[3],"inconclusive: 30.6 µM [cytotoxic, partial curve]"
same,activation,[7],inconclusive: -25.3%
NC(=O)N1C(=O)C(C(=O)c2cc(Cl)cs2)c2cc(F)c(Cl)cc21 (stereo not drawn),Potency,[1],active: 17.2 µM
same,Potency,[2],active: 30.6 µM
same,Potency,[3],active: 30.6 µM
same,activation,[7],inconclusive: -23.2%
CCCCCCCCCCCC(=O)OCC(O)CO (stereo not drawn),Potency,[1],"inconclusive: 61.1 µM [rising, partial curve]"
same,Potency,[2],"inconclusive: 68.6 µM [cytotoxic, single point]"
same,Potency,[3],"inconclusive: 61.1 µM [cytotoxic, partial curve, poor fit]"
same,Potency,[7],inactive
Oc1ccc(OCc2ccccc2)cc1,Potency,[1],inconclusive: 16.9 µM [full curve]
same,Potency,[2],"inconclusive: 26.7 µM [cytotoxic, partial curve]"
same,Potency,[8],active: 15 µM
same,"activity change, negative = inhibition",[5],inconclusive: 12.7%
CC1C2CC(CC2C2CCCC(O)C2)C1(C)C (stereo not drawn),"activity, negative = inhibition",[1],inconclusive: -26.9%
same,Potency,[2],"inconclusive: 68.6 µM [cytotoxic, single point]"
same,Potency,[3],"inconclusive: 54.5 µM [cytotoxic, partial curve, poor fit]"
same,Potency,[7],"inconclusive: 68.6 µM [cytotoxic, partial curve, poor fit]"
CCCCCCCCCCCCCCCCCCOCC(O)CO (stereo not drawn),Potency,[1],inactive
same,Potency,[2],"inconclusive: 33.5 µM [rising, partial curve, poor fit]"
same,Potency,[4],"inconclusive: 13.3 µM [cytotoxic, single point]"
O=C1C(=O)c2ccccc2C(O)=C1C1CCC(c2ccc(Cl)cc2)CC1 (stereo not drawn),"activity, negative = inhibition",[1],inconclusive: -40.8% [at 42.5 µM]
same,Potency,[2],active: 2.66 µM
same,Potency,[3],"inconclusive: 2.98 µM [cytotoxic, single point]"
same,Potency,[7],inactive
OCCN1CCN(CCCN2c3ccccc3C=Cc3ccccc32)CC1,"activity, negative = inhibition",[1],inconclusive: -37.1% [at 42.5 µM]
same,Potency,[2],active: 5.31 µM
same,Potency,[3],"inconclusive: 2.11 µM [cytotoxic, partial curve]"
same,Potency,[4],"inconclusive: 16.8 µM [cytotoxic, partial curve]"
C(=C\c1ccccc1)/CN1CCN(C(c2ccccc2)c2ccccc2)CC1,Potency,[1],inconclusive: 33.5 µM [inhibitor]
same,Potency,[2],inconclusive: 33.5 µM [cytotoxic]
same,Potency,[3],inconclusive: 33.5 µM [cytotoxic]
same,Potency,[5],"inconclusive: 33.5 µM [falling, partial curve, poor fit]"
CC(C)(Cc1c[nH]c2ccccc12)NCC(O)COc1ccccc1C#N (stereo not drawn),Potency,[1],"inconclusive: 21.1 µM [inhibitor, partial curve]"
same,Potency,[2],active: 29.8 µM
same,Potency,[3],active: 26.6 µM
same,Potency,[7],inactive
Cc1ccc2c(c1[N+](=O)[O-])C(=O)c1ccccc1C2=O,Potency,[1],"inconclusive: 4.24 µM [rising, full curve]"
same,Potency,[2],inactive
same,Potency,[4],inconclusive: 5.34 µM [cytotoxic]
same,activation,[7],inconclusive: -1.64% [at 42.5 µM]
CCCCCCCC/C=C\CCCCCCCC(=O)O,Potency,[1],"inconclusive: 61.5 µM [activator, single point]"
same,Potency,[2],"inconclusive: 68.6 µM [cytotoxic, single point]"
same,Potency,[4],"inconclusive: 3.06 µM [cytotoxic, full curve, poor fit]"
CC(C(=O)O)c1ccc(C(=O)c2cccs2)cc1 (stereo not drawn),"activity, negative = inhibition",[1],inconclusive: 0.271% [at 42.5 µM]
same,Potency,[2],inactive
same,Potency,[6],inconclusive: 16.2 µM
same,"activity change, negative = inhibition",[5],inconclusive: -9.93% [at 42.5 µM]
O=C(CCCN1CCN(c2ccc(F)cc2)CC1)NC1c2ccccc2CSc2ccccc21 (stereo not drawn),"activity, negative = inhibition",[1],inconclusive: -55.7% [at 42.5 µM]
same,Potency,[2],inconclusive: 10.6 µM [cytotoxic]
same,Potency,[3],"inconclusive: 11.9 µM [cytotoxic, single point]"
same,Potency,[5],"inconclusive: 29.8 µM [falling, partial curve]"
CN(CCOc1ccc(CC2SC(=O)NC2=O)cc1)c1ccccn1 (stereo not drawn),"activity, negative = inhibition",[1],inconclusive: -35.1%
same,Potency,[2],"inconclusive: 19.2 µM [cytotoxic, partial curve] and inconclusive: 13.3 µM [cytotoxic, full curve]"
same,Potency,[3],inactive
same,activation,[7],inconclusive: 1.09%
CCCCCCC[N+](CC)(CC)CCCCc1ccc(Cl)cc1,Potency,[1],"inconclusive: 6.68 µM [inhibitor, full curve]"
same,Potency,[2],active: 9.44 µM
same,Potency,[4],active: 26.6 µM
